The supplement of paper PMC11417369
The list shows a part of the results.

System: PfHDP1 homeodomain (GST-tagged)
Test: gcPBM binding intensity (ln(normalized median fluorescence intensity)); higher = stronger DNA binding
Summary of the method: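 For binding intensity, the highest Masliner-normalised natural-log median intensity across replicate spots of either probe orientation was taken. Protein bound to the array was stained with Alexa488 anti-GST antibody and scanned at 488 nm. The protein, GST-tagged P. falciparum DNA-binding domains from E. coli at about 25 μg on average, had been applied for 1 h to an Agilent 4 × 180k array of primer-extended double-stranded 36-bp intergenic genomic probes and negative controls.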

Row | Sequence | gcPBM binding intensity (ln)
1 | AAAAAAAAATATAACAGTACATAAACATATGAATAT [XGTACX_site7093] | 6.39
2 | TATGAAGTACACAATACACACTAATTATATATAAAT [CACACA_site5444] | 6.69
3 | TTTTTAAAAAAACATACACACAAAAAAAAAAAAAAA [CACACA_site3935] | 6.29
4 | AATATTTATTTTATATGTACATAATTTATTTTTAAT [XGTACX_site776] | 6.45
5 | AAAAAAAAAAAAAAAACACACAAGGATCATATATAT [CACACA_site3812] | 6.57
6 | GATTTGTCTTACAGTGGTACACTTATATATATGTGA [XGTACX_site2899] | 6.69
7 | TTTTTTTATATAGACACAAAAGAAAATTACATATAC [CACACA_negctrl_site235] | 6.49
8 | TATAATATATATATATTTATATATATCTTCCTAATC [GTGCAC_negctrl_site682] | 6.08
9 | TATAAATATAGACACACACACACCAAAGCGTAGCGC [CACACA_site6179] | 6.45
10 | TATATATATTATAATACATGCGGTGATGAAAGTTAT [TGCATGCA_site924] | 7.13
11 | CAATTTTACTCATAAACACACATATAGATGTTATTA [CACACA_site7474] | 6.52
12 | TATATATATATATGATGTACATGAAAATTTCCAAAA [XGTACX_site5472] | 9.27
13 | ATATCTGAAGTGTAAAGTACATATATATATTCATAT [XGTACX_site4612] | 6.69
14 | TATATTTTTTAATTCACACAAAAATGAAAAATATTT [CACACA_site6001] | 6.16
15 | ATTTTATCAAGAGGAAGTACATTACCCCATGAAAAA [XGTACX_site8295] | 6.44
16 | AATAAAAATATATCCACACACATATATATATCTGTA [CACACA_site4481] | 6.54
17 | TATATTATATTTTTATGTACATATATGTTTTTTTTT [XGTACX_site8239] | 6.6
18 | AATATAAATAATAGTAGTACATATATATCTCAGAAA [XGTACX_site4055] | 6.38
19 | AATGGAGTTTATAAGTATAAACGAGGGATACCTAAA [XGTACX_negctrl_site483] | 6.77
20 | TTATGTTGTAAATGCACACATACATATACGCAGTTT [CACACA_site3015] | 9.92
21 | TAAATAAATTTATACACACACACACCCATATATATA [CACACA_site849] | 7
22 | AAAAAATCAAAACACACACACACACTAGAAAAAAAA [CACACA_site4909] | 6.8

Row | Sequence | gcPBM binding intensity (ln)
23 | ATATAAGCGTATACATGTACATATATATCTTTGTAA [XGTACX_site2742] | 6.7
24 | TATGTAAATCTCTTAAGAATTCGCTATATCTCTTTT [CACACA_negctrl_site1180] | 6.08
25 | AGGCTACGAATAGAATGTACCCGAAATAAGGAATAT [XGTACX_site6012] | 6.57
26 | CTAAAATACGGACACACACACACATATATATATATA [CACACA_site6138] | 9.22
27 | AAAAAAAAAAAAAACACACACACAAAAAAAAATATA [CACACA_site1104] | 6.5
28 | ATTATCTCCGCCATGTGGACACATATAAGACATTTT [XGTACX_site2889] | 6.9
29 | ATTGTATATAAATGAGTGCATACTATGTTGTTCTTA [GTGCAC_site9678] | 7.8
30 | GAGTAAATAAATAAATGTACATATATATATATTATC [XGTACX_site8466] | 6.59
31 | TATAATAAATATTAACGTACTCATATATATATATAT [XGTACX_site3871] | 9.26
32 | ATACATAAATATTGATGTACTCATTTAATATATTAT [XGTACX_site3992] | 6.33
33 | AATATATATATATATATATATTTTTGTTAGAATATG [XGTACX_negctrl_site58] | 7.09
34 | GCAAGGAAATAATTGATAATATATATATATATATAT [GTGCAC_negctrl_site400] | 9.2
35 | ATCTAAATTTTTCCATGTACATATACTTTTATGCAT [XGTACX_site2683] | 7.08
36 | TTATAATATGGATACACACACATATATAAATATATA [CACACA_site5314] | 6.48
37 | AAAAAATAAATAAATACACACAAATCTATATTTATA [CACACA_site7243] | 6.22
38 | AAATTAGAAATACCTACACACTTATCAAAATAAATT [CACACA_site7132] | 5.95
39 | ATAATTATGAAGCATACATGCATGTCCTGGCTTAAA [TGCATGCA_site491] | 6.44
40 | AAAATATGTAGACACATACACACATATATATATATA [CACACA_site1221] | 9.22
41 | TATATGTATGTTTGTTTGTTTGTATTTTTTAAGGTA [XGTACX_negctrl_site619] | 6.85
42 | TTTTCTTTTTCCAAAAGTACGTAATTTAAACATTTT [XGTACX_site2066] | 6.43
43 | TTTTTTTTTTCAAATGCATGCAAAAAAAAAAAAATA [TGCATGCA_site945] | 6.13
44 | CTAAGAAAAAATAAAGCACACAAATATTTTAAAAAC [CACACA_site9094] | 6.59

Row | Sequence | gcPBM binding intensity (ln)
45 | AAATTAAATAAATTTACACACTAAAAATTACAGATA [CACACA_site4722] | 6.28
46 | CATTATGTCGTAAATACACACATACAGATACATACA [CACACA_site4880] | 6.7
47 | TTTTTATTTGGTTGTGTACACATATATATATATATA [CACACA_site5844] | 9.33
48 | AAAAAACACCCACATACACACAAAAATGTTATAAAT [CACACA_site81] | 6.84
49 | GTTATATATAATAATTGTACAAAATTAAATATAACT [XGTACX_site4189] | 6.38
50 | TAACTATATTTTTACTGTACAAAAAAATTAAATAAT [XGTACX_site1765] | 6.46
51 | ATATTAATTCTACATTGTACACATGAAAAAATATAA [XGTACX_site8759] | 6.74
52 | AAAACACAAAAAAAATGTACACATATATATATATAT [XGTACX_site8509] | 9.11
53 | AAAAAGAATAAATAAATATAAATAAATAAATATATA [GTGCAC_negctrl_site336] | 6.19
54 | ACATATAGAAGTATCTATAAACAGTGATAGCATTTT [CACACA_negctrl_site1122] | 6.27
55 | CAATCTTTTACGAATACACACACATAAAGAAAAAAA [CACACA_site8367] | 6.85
56 | AATTTTTTATATGTCACACATTTGTTATTATTATTA [CACACA_site4197] | 6.51
57 | TTAAATAAATAAAAATGTACATGCATATATAAATAT [XGTACX_site8908] | 6.65
58 | AATAAATTATGAACGGTGCAGGAAAAATTGTAACAT | 8.21
59 | TAGATTATTTTATTTAGTACATAAAAAAGTAAGACC [XGTACX_site7889] | 6.63
60 | TGAAGTGCAAAATACTGTACGTAATGTGCTTGTTAC [XGTACX_site4512] | 9.73
61 | AAACATAAGGGACACACACACATATATATATATATA [CACACA_site5920] | 9.24
62 | CAAAAAAACAAACACACACACACACCGATATATATA [CACACA_site9218] | 6.92
63 | AAAAAAAAATGTCATGGTACACAATTTTTTCTTTTT [XGTACX_site4505] | 5.89
64 | TAAAGTAAAACAAGGTAAGGTTTTTCTTTTTCTTTT [CACACA_negctrl_site1271] | 5.7
65 | TATATCCACATTTTTAGTACTTAAAAATAAATAAAC [XGTACX_site3826] | 6.62
66 | TTCTGACCAATGCTATAAAATAATACAAAAGAAAAA [GTGCAC_negctrl_site3] | 6.47

Row | Sequence | gcPBM binding intensity (ln)
67 | TGAAGAGGAAACAAACAAAATGAATAATTAAAAAGG [CACACA_negctrl_site1601] | 6.69
68 | TTTTGTTATAATAAAGTGCATTTAGTCGGGTTACAA [GTGCAC_site9779] | 8.3
69 | AAATATTATAAAAAGGTGCATTTTTATTATATGAGT | 8.91
70 | CTAGGTATGCTTTAAACATGCAAAAATACAAATTAC [TGCATGCA_site239] | 6.71
71 | ATATATAAATATATTTGTACATATAATATGTATTAT [XGTACX_site8820] | 6.61
72 | AATTTAAAAAAAATCACACACAGAAAAAAAAAAAAA [CACACA_site2322] | 6.23
73 | ATATATGTTTTTATATGTACTTATAATGTGTGTATA [XGTACX_site5165] | 6.69
74 | TTTCTTCATTTTTTCACACATAAGAAAATATAATCA [CACACA_site4275] | 6.59
75 | AAGGAAAACAATAGGTGTACCAAACGTCCTAGGAAC [XGTACX_site5732] | 6.48
76 | AAAAAAGCAATATGATGTACATTTACTTTGTGAAAG [XGTACX_site4450] | 6.47
77 | TAAAAAAATAAAATTACACACATATATAAATATATA [CACACA_site2620] | 6.21
78 | AAAAAAAGTTATATTACACACTTTATTCGTTAACTT [CACACA_site3013] | 6.48
79 | ACAACAATATTTGAATGTACTCTATTTTCGTTGTTC [XGTACX_site593] | 6.45
80 | ATATTTATGAAGTTCACACATATATATATATATATA [CACACA_site5954] | 9.49
81 | GATAAATTAAAACACACACACATATATATATATATA [CACACA_site3962] | 9.45
82 | TTATAATAAAATGAATATATATAATTTAAAATATTT [CACACA_negctrl_site1651] | 6.33
83 | AAAAAAATAGTCTTCTTGCACTTTTTAATTTATTTT | 6.7
84 | TATATATAAATATGCTGTACGTTTTAATACGTTAAG [XGTACX_site2378] | 6.2
85 | ATACACACTCAAAAAAGTACTTAACTACATGAATTG [XGTACX_site6366] | 6.64
86 | TAATTATATTCACTTGCTATATAAATTATATATATT [CACACA_negctrl_site526] | 6.33
87 | CTCAAAGGAATATTCACACATAAATTATAGACTACA [CACACA_site6050] | 6.42
88 | GTATATATATATATATGCAAATGTATAAATCTACAT [CACACA_negctrl_site546] | 7.32
